To fix the notation:
T1: RBFOX1 RRM (Homo sapiens, UniProt Q9NWB1 109-208)
T1 sequence: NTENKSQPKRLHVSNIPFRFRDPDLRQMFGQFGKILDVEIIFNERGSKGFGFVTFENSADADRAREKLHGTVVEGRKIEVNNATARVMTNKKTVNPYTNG

B1: AACGAAG (DNA:RNA)
RNA: GGGAGACCGGAAUUCAGAUUGUCCAACGAAGUUAAAUCCCGUCGUAGCCACCA
DNA 1: CAATCTGAATTCCGGTCTCCC
DNA 2: TGGTGGCTACGACGGGATT
B2: AUGUUAA (DNA:RNA)
RNA: B1 RNA with A26U, C27G, G28U, A29U, G31A
DNA 1: CAATCTGAATTCCGGTCTCCC
DNA 2: TGGTGGCTACGACGGGATT
B3: CGAGGAA (DNA:RNA)
RNA: B1 RNA with A25C, A26G, C27A, A29G, G31A
DNA 1: CAATCTGAATTCCGGTCTCCC
DNA 2: TGGTGGCTACGACGGGATT
B4: AGAGUGG (DNA:RNA)
RNA: B1 RNA with A26G, C27A, A29U, A30G
DNA 1: CAATCTGAATTCCGGTCTCCC
DNA 2: TGGTGGCTACGACGGGATT
B5: CCAUUCA (DNA:RNA)
RNA: GGGAGACCGGAAUUCAGAUUGUCCCCAUUCAUUAAAUCCCGUCGUAGCCACCA
DNA 1: CAATCTGAATTCCGGTCTCCC
DNA 2: TGGTGGCTACGACGGGATT
B6: UGGAGCU (DNA:RNA)
RNA: B5 RNA with C25U, C26G, A27G, U28A, U29G, A31U
DNA 1: CAATCTGAATTCCGGTCTCCC
DNA 2: TGGTGGCTACGACGGGATT
B7: AUCCACA (DNA:RNA)
RNA: B1 RNA with A26U, G28C, A30C, G31A
DNA 1: CAATCTGAATTCCGGTCTCCC
DNA 2: TGGTGGCTACGACGGGATT
B8: CCUGAUG (DNA:RNA)
RNA: B1 RNA with A25C, A26C, C27U, A30U
DNA 1: CAATCTGAATTCCGGTCTCCC
DNA 2: TGGTGGCTACGACGGGATT
B9: AUUGGUU (DNA:RNA)
RNA: B1 RNA with A26U, C27U, A29G, A30U, G31U
DNA 1: CAATCTGAATTCCGGTCTCCC
DNA 2: TGGTGGCTACGACGGGATT
B10: AGGCCCU (DNA:RNA)
RNA: B1 RNA with A26G, C27G, G28C, A29C, A30C, G31U
DNA 1: CAATCTGAATTCCGGTCTCCC
DNA 2: TGGTGGCTACGACGGGATT
B11: CAUUUCG (DNA:RNA)
RNA: B5 RNA with C26A, A27U, A31G
DNA 1: CAATCTGAATTCCGGTCTCCC
DNA 2: TGGTGGCTACGACGGGATT
B12: AUGUUCA (DNA:RNA)
RNA: B5 RNA with C25A, C26U, A27G
DNA 1: CAATCTGAATTCCGGTCTCCC
DNA 2: TGGTGGCTACGACGGGATT
B13: AGGGUAC (DNA:RNA)
RNA: B1 RNA with A26G, C27G, A29U, G31C
DNA 1: CAATCTGAATTCCGGTCTCCC
DNA 2: TGGTGGCTACGACGGGATT
B14: CUCGUGG (DNA:RNA)
RNA: B1 RNA with A25C, A26U, A29U, A30G
DNA 1: CAATCTGAATTCCGGTCTCCC
DNA 2: TGGTGGCTACGACGGGATT
B15: GUAUUGU (DNA:RNA)
RNA: B5 RNA with C25G, C26U, C30G, A31U
DNA 1: CAATCTGAATTCCGGTCTCCC
DNA 2: TGGTGGCTACGACGGGATT
B16: ACUACUU (DNA:RNA)
RNA: B1 RNA with A26C, C27U, G28A, A29C, A30U, G31U
DNA 1: CAATCTGAATTCCGGTCTCCC
DNA 2: TGGTGGCTACGACGGGATT
B17: CUUGCUG (DNA:RNA)
RNA: B1 RNA with A25C, A26U, C27U, A29C, A30U
DNA 1: CAATCTGAATTCCGGTCTCCC
DNA 2: TGGTGGCTACGACGGGATT
B18: GAAAUCC (DNA:RNA)
RNA: B5 RNA with C25G, C26A, U28A, A31C
DNA 1: CAATCTGAATTCCGGTCTCCC
DNA 2: TGGTGGCTACGACGGGATT
B19: UAGCGAU (DNA:RNA)
RNA: B1 RNA with A25U, C27G, G28C, A29G, G31U
DNA 1: CAATCTGAATTCCGGTCTCCC
DNA 2: TGGTGGCTACGACGGGATT
B20: UCGCUGG (DNA:RNA)
RNA: B5 RNA with C25U, A27G, U28C, C30G, A31G
DNA 1: CAATCTGAATTCCGGTCTCCC
DNA 2: TGGTGGCTACGACGGGATT
B21: CACAUUC (DNA:RNA)
RNA: B1 RNA with A25C, G28A, A29U, A30U, G31C
DNA 1: CAATCTGAATTCCGGTCTCCC
DNA 2: TGGTGGCTACGACGGGATT
B22: GAGGACA (DNA:RNA)
RNA: B1 RNA with A25G, C27G, A30C, G31A
DNA 1: CAATCTGAATTCCGGTCTCCC
DNA 2: TGGTGGCTACGACGGGATT
B23: UGUUUGU (DNA:RNA)
RNA: B5 RNA with C25U, C26G, A27U, C30G, A31U
DNA 1: CAATCTGAATTCCGGTCTCCC
DNA 2: TGGTGGCTACGACGGGATT
B24: GAGUGAG (DNA:RNA)
RNA: B1 RNA with A25G, C27G, G28U, A29G
DNA 1: CAATCTGAATTCCGGTCTCCC
DNA 2: TGGTGGCTACGACGGGATT
B25: CCAAGUG (DNA:RNA)
RNA: B5 RNA with U28A, U29G, C30U, A31G
DNA 1: CAATCTGAATTCCGGTCTCCC
DNA 2: TGGTGGCTACGACGGGATT
B26: GCAUGGG (DNA:RNA)
RNA: B5 RNA with C25G, U29G, C30G, A31G
DNA 1: CAATCTGAATTCCGGTCTCCC
DNA 2: TGGTGGCTACGACGGGATT
B27: UGUCUAC (DNA:RNA)
RNA: B1 RNA with A25U, A26G, C27U, G28C, A29U, G31C
DNA 1: CAATCTGAATTCCGGTCTCCC
DNA 2: TGGTGGCTACGACGGGATT
B28: ACCCAGU (DNA:RNA)
RNA: B1 RNA with A26C, G28C, A30G, G31U
DNA 1: CAATCTGAATTCCGGTCTCCC
DNA 2: TGGTGGCTACGACGGGATT
B29: UUUAGAU (DNA:RNA)
RNA: B1 RNA with A25U, A26U, C27U, G28A, A29G, G31U
DNA 1: CAATCTGAATTCCGGTCTCCC
DNA 2: TGGTGGCTACGACGGGATT
B30: GAGCAGG (DNA:RNA)
RNA: B1 RNA with A25G, C27G, G28C, A30G
DNA 1: CAATCTGAATTCCGGTCTCCC
DNA 2: TGGTGGCTACGACGGGATT
B31: UACAUAA (DNA:RNA)
RNA: B1 RNA with A25U, G28A, A29U, G31A
DNA 1: CAATCTGAATTCCGGTCTCCC
DNA 2: TGGTGGCTACGACGGGATT

Numbering of substitutions follows the chain as printed; changes in the protein carry UniProt numbers. The list shows a part of the results.

These results are taken from article PMC9911399, “Two distinct binding modes provide the RNA-binding protein RbFox with extraordinary sequence specificity”.

For this assay, the target named is T1, RBFOX1 RRM. Kind of assay: EMSA; HiTS-Eq, 1 nM pool, 10 min; buffer printed only for the single-RNA assays: 10 mM Tris pH 7.5, 150 mM NaCl, 3.4 mM EDTA, 0.001% NP-40, 30 C. The conditions noted are these: tags: His6 N-terminal (pET28a); label: 5' 32P. An outline of the steps: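 Purified RbFox RRM, wild type or mutant, was incubated for 10 min in 50 µL with 1 nM of a 5′-radiolabelled RNA pool carrying 7 randomized nucleotides, whose flanks were annealed to DNA oligonucleotides, over a series of increasing protein concentrations. Unbound RNA was resolved on 8% native PAGE, cut out, reverse-transcribed, barcoded by PCR and sequenced on an Illumina HiSeq 2500. Relative association constants were derived from changes in read counts for each RNA species versus the control reaction and normalised to the cognate motif.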
In general terms: A gel shift assay detects complexes by their altered migration in electrophoresis.
B1: the binding signal was 0.00636 KA relative to UGCAUGU.

As to B2, the binding signal was 0.00381 KA relative to UGCAUGU.

For the molecule B3, the binding signal was 0.011 KA relative to UGCAUGU.

Consider B4, for which the binding signal is 0.0131 KA relative to UGCAUGU.

B5: the binding signal is 0.00352 KA relative to UGCAUGU.

B6: the binding signal is 0.0239 KA relative to UGCAUGU.

For the molecule B7, the binding signal was 0.000327 KA relative to UGCAUGU.

For the molecule B8, the binding signal was 0.0205 KA relative to UGCAUGU.

As to B9, the binding signal is 0.0109 KA relative to UGCAUGU.

In the case of B10, the binding signal was 0.00512 KA relative to UGCAUGU.

As to B11, the binding signal was 0.00769 KA relative to UGCAUGU.

On to B12, for which the binding signal was 0.00747 KA relative to UGCAUGU.

As for B13, the binding signal was 0.0154 KA relative to UGCAUGU.

As to B14, the binding signal was 0.00654 KA relative to UGCAUGU.

B15: the binding signal is 0.0125 KA relative to UGCAUGU.

Turning to B16, the binding signal was 0.00357 KA relative to UGCAUGU.

In the case of B17, the binding signal was 0.0189 KA relative to UGCAUGU.

With B18, the binding signal was 0.00369 KA relative to UGCAUGU.

Turning to B19, the binding signal is 0.0103 KA relative to UGCAUGU.

Regarding B20, the binding signal was 0.0219 KA relative to UGCAUGU.

Consider B21, for which the binding signal is 0.00143 KA relative to UGCAUGU.

Consider B22, for which the binding signal is 0.00218 KA relative to UGCAUGU.

In the case of B23, the binding signal is 0.0434 KA relative to UGCAUGU.

Take B24: the binding signal is 0.0102 KA relative to UGCAUGU.

Consider B25, for which the binding signal was 0.00535 KA relative to UGCAUGU.

Turning to B26, the binding signal is 0.0735 KA relative to UGCAUGU.

On to B27, for which the binding signal was 0.0108 KA relative to UGCAUGU.

With B28, the binding signal was 0.00233 KA relative to UGCAUGU.

As to B29, the binding signal is 0.0157 KA relative to UGCAUGU.

As for B30, the binding signal was 0.0152 KA relative to UGCAUGU.

Turning to B31, the binding signal was 0.00163 KA relative to UGCAUGU.
